Source: article PMC12136788
The list shows a part of the results.

B1: chr11:70340070:70340071:+_ENSMUSG00000018286_ENSMUST00000018430|mus_mus|FALSE|FALSE (ssRNA)
RNA: GGGAGUUCUACAGUCCGACGAUCCAGAUCUUCUCUGUACCGGUAACACAUCUCCUUAAAGAGACUGGCGGCUGUGUGGACUAGUGGAGGCUCGUUCAGUUCAAUACUGUGGAAACCAAGCUGGUAAGUGACAGCGUCUGCCACCAACAGAGGAUUGAGCAUCA
B2: chr11:21042598:21042599:+_ENSMUSG00000020134_ENSMUST00000093290|mus_mus|FALSE|FALSE (ssRNA)
RNA: GGGAGUUCUACAGUCCGACGAUCGCUGUCAUGAGUAUAUUCAACCACCACCGUCUGGGCUCGAGAUAAAGUAUAUGAUAUGCUAUGCUGGUCCUUGUUGCUUAUUGCCUUGGCAGCCUGAGGAGUACAUGCAAUGUGCACGGUCAACAGAGGAUUGAGCAUCA
B3: chr3:76513020:76513021:+_ENSMUSG00000034098_ENSMUST00000038364|mus_mus|FALSE|FALSE (ssRNA)
RNA: GGGAGUUCUACAGUCCGACGAUCCGCACUACAGAGAGUGGUUUCAGCUUUGUCUCACUGUCAAUUUCCCUAGAAGUGGUUCUUUCUGUGCAGACACAGUCAUGCUCCUUUUUCAGAACUGAGAAAGCUCCUGACUUAUGUAACCAACAGAGGAUUGAGCAUCA
B4: chr14:78183846:78183847:+_ENSG00000119705_ENST00000557342|hu_hu|motif|central (ssRNA)
RNA: GGGAGUUCUACAGUCCGACGAUCGCAGUCUCAAAAAUCUUUCUUUUCAUCAUCAGAUGUUUGCGGAAGUUUUGGCCUUCGGGUGUGAACCUGGACCUUUACUCCAUCUAUAAUAUGAUUUUCCUGUUGUAGUGCAUUCCGAAGCAACAGAGGAUUGAGCAUCA
B5: 8172086_8172303_3811_CDS_ENSG00000178921_ENST00000314666|human|control|control (ssRNA)
RNA: GGGAGUUCUACAGUCCGACGAUCUUGGAGUUCCGGAGAAGAAAAUGCUACGUAACCUUCCCCGUGCGCACUCCACACGGGCAGCACGGCGCCCUCCAUCCCUCGCAGCAUCAGGGCUGGCCCAGGCCCCACACGCACGCUGGCCAACAGAGGAUUGAGCAUCA
B6: chrX:17854524:17854525:+_ENSMUSG00000037369_ENSMUST00000044484|mus_mus|FALSE|FALSE (ssRNA)
RNA: GGGAGUUCUACAGUCCGACGAUCUCGAGAAUUACUCUCAUUAGUGACAAAAAGCAGAUCAAAAACCUCCACCUCACAAAUACUACAAUAAUGAGCUGGUUCUUCUUUUGUCCGCCCGUGCCAUAUGAUCUCUUUUCCUGCAGCCAACAGAGGAUUGAGCAUCA
B7: 74671771_74678282_1214_CDS_ENSG00000168411_ENST00000361070|human|control|control (ssRNA)
RNA: GGGAGUUCUACAGUCCGACGAUCCCUAGUGCACUUAUCAGUGAGGACCUGCAGUUGGAGUCGGCACUGUGCUGAUUCUAACUCGGCCUGUUUCCUUAGCAUCUGUUCCUUCAGUAGGGAACUUUUCAUGCGCUCCUGUUCACUCAACAGAGGAUUGAGCAUCA
B8: chr2:232320318:232320319:-_ENSG00000115053_ENST00000322723|hu_hu|hu_hu_hu_mus_True|58_58 (ssRNA)
RNA: GGGAGUUCUACAGUCCGACGAUCACUAUUAAAGUCUACAAAACCAAACCCUUUGGAAGAACCAGUUUCCCGAUCAGUAACUAUCCUUGCACGAACAGAGCCCUCAAAUGAUUCUUUUAAGGUCUCUUCAGUGGUAUCCUCAGACAACAGAGGAUUGAGCAUCA
B9: chr1:243329018:243329019:-_ENSG00000143702_ENST00000366542|hu_hu|motif|central (ssRNA)
RNA: GGGAGUUCUACAGUCCGACGAUCCAAUUUAGUAGGUGUCCACUGAGCCUCCUCCCUUUGUUCUUGUUGUUGAAGUUUUGCGGAUGUUUGCUUUACCAAAGAAGUUUCCUUAUCAGUUUCACUUUUCUCUUUUCCAGGAGCAGACAACAGAGGAUUGAGCAUCA
B10: chr4:144460044:144460045:+_ENSG00000153147_ENST00000283131|hu_mus|hu_hu_hu_mus_False|28_68 (ssRNA)
RNA: GGGAGUUCUACAGUCCGACGAUCACGGUCCAUAGCCUGAAGAUCAACUUGCGGAUUCCAAUCUGAGUCAUACAAAAUGACUACAUCAGCAGUUGCAAGAUUGAUGCCAAGACCACCAGCACGUGUGCUUAGCAUAAAUACAAACAACAGAGGAUUGAGCAUCA
B11: chr9:53391610:53391611:-_ENSMUSG00000032047_ENSMUST00000034547|mus_hu|FALSE|FALSE (ssRNA)
RNA: GGGAGUUCUACAGUCCGACGAUCCAGAGAAACAGCUCCUCCAUUGAUAUUCACUUUUUGGGGAUCAAUCUCCAACAUUUUAAUGUUUGCUAGUACAACCAGACUAAAGGCUUCAUUUACUUCCCACAUUGCAAUAUCUUCUUUCAACAGAGGAUUGAGCAUCA
B12: 216189970_216190747_683_CDS_ENSG00000138363_ENST00000236959|human|control|control (ssRNA)
RNA: GGGAGUUCUACAGUCCGACGAUCGUGGUUUUUGGCUGCAGCUCUCAGUAAGGUUACUCCACCAAUGUCAAUUUGCUCCACAGCCUCCUCAACAGUUACACCUGGAGAAGCCACUGUCUUUACAAAGGGAUAGAGAUUGCAGGCCAACAGAGGAUUGAGCAUCA
B13: chrX:131338992:131338993:-_ENSMUSG00000033436_ENSMUST00000035559|mus_hu|motif|central (ssRNA)
RNA: GGGAGUUCUACAGUCCGACGAUCAUAACAUCACUCUGGAUGAUACAUUAUUCAACACUGGCAGCUGAAAGGAUCCCUUUACGGUAUGAGCAAGUGGAAAAGCAGUAACUUUCAAUUUUCAACGCUUCCACACUGCAAAAUCAUCAACAGAGGAUUGAGCAUCA
B14: chr4:148551591:148551592:-_ENSMUSG00000063077_ENSMUST00000060537|mus_hu|mus_mus_mus_hu_False|18_78 (ssRNA)
RNA: GGGAGUUCUACAGUCCGACGAUCACCUGACAAAAUUAAAUAUCCCUGUAAAUUAGACAAGAAGCAGCAGGCAACAAAGUCUUUGCUUUGGAAUAUGUGCCAGGAAAAGUCAUCUUGUAGACCCCAAUCAAGAGACAGUUCACACAACAGAGGAUUGAGCAUCA
B15: chr12:6601462:6601463:-_ENSG00000111639_ENST00000229238|hu_mus|motif|central (ssRNA)
RNA: GGGAGUUCUACAGUCCGACGAUCCUCUCCUUGCUGGGAUAAGUCCUGUUCCCCUUCUCCAGGGUGACACAUUUCCCGUCCGGUCUGUACUUCCCAUGUCGGUUAAAGUGUUUGUAGAGAUAGCUGAUCCGUUUGUUAAGGUUACAACAGAGGAUUGAGCAUCA
B16: chr12:110819636:110819637:-_ENSG00000196510_ENST00000455511|hu_mus|motif|central (ssRNA)
RNA: GGGAGUUCUACAGUCCGACGAUCAAGCCUGAUGGCCUCCCGAAAGUGUAUGAUGGCUUCCUGGACCCUCCCCAUGUUCCGGAGCGCCGCCCCCUUGAGUAACAGAGCCUGGACGCUGUUGCUGUUCAGCUGGAUGGCCUUGGCCAACAGAGGAUUGAGCAUCA
B17: chr5:67718940:67718941:+_ENSMUSG00000029221_ENSMUST00000113676|mus_hu|FALSE|FALSE (ssRNA)
RNA: GGGAGUUCUACAGUCCGACGAUCGUAAAAGACUCAGUAUCUUCAUGGGGACUUCGUCGUCUGAUUUUUCGAAGUUGUUCUAGAUCACUGGAUUUGAGGCAGAACUCAUUUAUCGCUCUGACUCCAGUGAUGAAAUUAUUCUGACAACAGAGGAUUGAGCAUCA
B18: chr11:18536373:18536374:-_ENSG00000074319_ENST00000251968|hu_hu|FALSE|FALSE (ssRNA)
RNA: GGGAGUUCUACAGUCCGACGAUCAUAUGGGUAUGUGUCCAGUAGCCAUAGGCAUAUUGGAAUAUUGUAUGUAUUACCUCUAUAAGGCACAGGGAUUGUUCCAGUGAGGUUCAUUAGUUCCCUGGAACUGCCAUCGUUAAAAACCAACAGAGGAUUGAGCAUCA
B19: chr21:30439091:30439092:-_ENSG00000156261_ENST00000286788|hu_hu|FALSE|FALSE (ssRNA)
RNA: GGGAGUUCUACAGUCCGACGAUCCAGAAUUUUACAAACUCUGAUGUUAUCAACAUUGAAAUGGCCGGAAUCAGGAAAAAUAGAUACGCAUGCCUGAGCAAUAAGCUUGGCCAGAAAUACUUCAUUACCAUAUUGUUUACUCAUCAACAGAGGAUUGAGCAUCA
B20: chr7:65705844:65705845:+_ENSG00000169902_ENST00000304842|hu_mus|hu_hu_hu_mus_False|1_78 (ssRNA)
RNA: GGGAGUUCUACAGUCCGACGAUCAAACGGAUCUUUGUUACAUAAAUAAGGUGCCGGCUCCCCAUGCUUAACAAUGACCUCCAGAAGGAAGGCUUGCAUGGCAGAAUCUAGCACUUCAUCUGUGACACCCGCCUCAUCCAGGCGCAACAGAGGAUUGAGCAUCA
B21: chr16:94664741:94664742:+_ENSMUSG00000040785_ENSMUST00000117648|mus_mus|FALSE|FALSE (ssRNA)
RNA: GGGAGUUCUACAGUCCGACGAUCUGGCAUGGAUCUUUGCAUUGGAUACUCAGAAGAAAUGUUGGCCAAAGGUGUGUAAAUGCUAGUGAACUGCGACAGGCUAGGUACCAUGUUAAUGUACGCUGGUCGCUGGGUGAUGCCAAACAACAGAGGAUUGAGCAUCA
B22: 116060031_116060151_268_5pUTR_ENSMUSG00000020777_ENSMUST00000066587|mouse|control|control (ssRNA)
RNA: GGGAGUUCUACAGUCCGACGAUCGCUGGGGGCAGAGGAGGUGGCGACAGAAGUGACAGGCACCAAAGCGAUGACAACCUGUCUCCGCAGCUCAGGCGCCGACCAGGCCCUAUGAGCGGAGCGAGACAGCCCUCGGCCCCGCCCCAACAGAGGAUUGAGCAUCA

Biological target: T1, UNK ZnF1-3 (human, UniProt Q9C0B0 31-174)
T1 sequence: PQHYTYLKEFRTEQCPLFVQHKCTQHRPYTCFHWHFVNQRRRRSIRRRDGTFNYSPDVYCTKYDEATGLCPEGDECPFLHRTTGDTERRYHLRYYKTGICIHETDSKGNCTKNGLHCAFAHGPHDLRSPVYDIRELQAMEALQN
Assay: nsRBNS (natural sequence RNA bind-n-seq); RBNS binding buffer (assumed for nsRBNS): 25 mM Tris pH 7.5, 150 mM KCl, 3 mM MgCl2, 0.01% Triton X-100, 500 ug/ml BSA, 20 U/ml SUPERase-In, 4 C; UNK is unkempt and MSI1 is Musashi-1; names of the RNAs are library labels; protein concentration not given here; high values mean tight binding

Binder	binding signal [enrichment R]
B1	0.817
B2	0.958
B3	0.731
B4	0.602
B5	0.976
B6	0.919
B7	0.396
B8	0.668
B9	0.395
B10	0.923
B11	1.01
B12	1.43
B13	1.45
B14	1.73
B15	0.67
B16	0.773
B17	0.425
B18	0.499
B19	0.823
B20	0.314
B21	1.06
B22	1.07
